Some of the results follow.
B1: ENSG00000151612:stop:overlap|stop_codon|ENSG00000151612|stop_codon|NA|stop_codon (ssRNA)
RNA: GGGAGUUCUACAGUCCGACGAUCCAGGCCUGUUGGAGAAGGAAGCCAGCAGUGAGGGGGAUUGCAAAGUAGAGAGAGGUUGGUAGAACUGUGGACUGUGAAGAGAUCGAGAAUAGCACAGUUAACUAGGCAUUUGCCUUCGGCCAACAGAGGAUUGAGCAUCA
B2: chr8:88167829:88167930:-|CDS|ENSG00000156103|msi1|total|mutant (ssRNA)
RNA: GGGAGUUCUACAGUCCGACGAUCCUUUGAUGUGUGGCAGAAUGUAACUCCUCUGACAUUUGAAGAAGUUCCCUACAGUGAAUCCGAAAAUGGCAAACGUGAUGUGGAUAUAACCAUUAUUUUUGCAUCUGGUUUCCAUGGGGACAACAGAGGAUUGAGCAUCA
B3: chr10:60791946:60792061:+|CDS|ENSG00000170312|unk|total|mutant (ssRNA)
RNA: GGGAGUUCUACAGUCCGACGAUCGUCAGCUCGUUACUCAACUCCAGUUGACAUUUGGAGUACCGGCACCAUAUUUGCUGAACCCGCAACUAAGAAACCACUUUUCCAUGGGGAUUCAGAAAUUGAUCAACUCUUCAGGAUUUUCAACAGAGGAUUGAGCAUCA
B4: chr17:15229982:15230086:-|3pUTR|ENSG00000109099|msi1_unk|total|mutant (ssRNA)
RNA: GGGAGUUCUACAGUCCGACGAUCUCAUAAAGCCUUCAUCACUCCCACAUUUUUCUUACGGUCGGAGCAUCAGAACAAGCGUCCCGACUCCUUGGGACCGUGAGUUCCCCGAGCUUGGCUGGGUCCCGGCUGUUCUGUGCCUCCCAACAGAGGAUUGAGCAUCA
B5: chr20:3582170:3582271:+|CDS|ENSG00000088812|msi1|FALSE|bound_elsewhere (ssRNA)
RNA: GGGAGUUCUACAGUCCGACGAUCGGCCUUCGGAAGAUCAAUGUGUCCUACUGGUGCUGGGAAGAUAUGUCCCCAUUUACAAAUAGUUUACUACAGUGGAUGCCGUCUGAGCCCAGUGAUGCUGGAUUCUGUGGAAUUUUAUCACAACAGAGGAUUGAGCAUCA
B6: chr20:50583650:50583751:+|3pUTR|ENSG00000196396|msi1|total|mutant (ssRNA)
RNA: GGGAGUUCUACAGUCCGACGAUCUUCCUAAGCCUGUUGCUGAAGUCAUUGUCGCUCAGCAACCGGGUGCAGUUUUCCAGGAACCGGCAUUUGCCUAAUUCCUGGCAUGACACUCCCGUGACUUCCUGGUGAGGCCCAGCCUGUCAACAGAGGAUUGAGCAUCA

target: MSI1 full-length (mouse, UniProt Q61474 1-362); test: nsRBNS (natural sequence RNA bind-n-seq); RBNS binding buffer (assumed for nsRBNS): 25 mM Tris pH 7.5, 150 mM KCl, 3 mM MgCl2, 0.01% Triton X-100, 500 ug/ml BSA, 20 U/ml SUPERase-In, 4 C; UNK is unkempt and MSI1 is Musashi-1; names of the RNAs are library labels; protein concentration not given here; high values mean tight binding
UniProt Q61474, sequence (Q61474 whole entry): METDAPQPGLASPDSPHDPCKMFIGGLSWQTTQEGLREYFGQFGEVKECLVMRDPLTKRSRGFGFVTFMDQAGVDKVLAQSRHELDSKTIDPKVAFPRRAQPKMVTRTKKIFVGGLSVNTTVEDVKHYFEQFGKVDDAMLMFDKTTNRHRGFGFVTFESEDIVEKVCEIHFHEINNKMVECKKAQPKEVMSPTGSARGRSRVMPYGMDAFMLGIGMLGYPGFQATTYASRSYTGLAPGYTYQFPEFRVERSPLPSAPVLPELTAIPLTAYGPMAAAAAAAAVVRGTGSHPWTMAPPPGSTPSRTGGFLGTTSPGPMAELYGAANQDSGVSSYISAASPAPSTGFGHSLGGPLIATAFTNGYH

Point of comparison: B6, binding signal 0.238 enrichment R. Against it:
- B1 — higher, 3.25 enrichment R
- B2 — lower, 0.209 enrichment R
- B3 — higher, 0.475 enrichment R
- B4 — higher, 0.483 enrichment R
- B5 — higher, 0.86 enrichment R
